{"source": "PubChem BioAssay AID1645882", "about": "(National Center for Advancing Translational Sciences (NCATS), 2021)", "note": "Several values for one entry are separate records, joined by “and”; a condition that tells them apart may be missing. Identical values can stand only once. About 120 (0.75%) of roughly 16,000 compounds were called active. The shares of active, inactive and inconclusive entries below differ from those in the screen. The call rests on the fitted dose curve; in most records, active means well fitted inhibition curve with a large enough effect; inconclusive means small, poorly fitted or top-dose-only effect; inactive means no such curve, though single readings can be large or run the other way. Potencies beside an inconclusive call are fits to weak or partial responses and may not hold up. The source holds several records for some structures; these can differ, active in one and inactive in another. Potency means the concentration at half of the fitted maximal effect; tags describe the fitted curve by direction and shape.", "data": [{"target": "Rap guanine nucleotide exchange factor 3 (Homo sapiens) (UniProt O95398)", "sequence (O95398 whole entry, looked up)": "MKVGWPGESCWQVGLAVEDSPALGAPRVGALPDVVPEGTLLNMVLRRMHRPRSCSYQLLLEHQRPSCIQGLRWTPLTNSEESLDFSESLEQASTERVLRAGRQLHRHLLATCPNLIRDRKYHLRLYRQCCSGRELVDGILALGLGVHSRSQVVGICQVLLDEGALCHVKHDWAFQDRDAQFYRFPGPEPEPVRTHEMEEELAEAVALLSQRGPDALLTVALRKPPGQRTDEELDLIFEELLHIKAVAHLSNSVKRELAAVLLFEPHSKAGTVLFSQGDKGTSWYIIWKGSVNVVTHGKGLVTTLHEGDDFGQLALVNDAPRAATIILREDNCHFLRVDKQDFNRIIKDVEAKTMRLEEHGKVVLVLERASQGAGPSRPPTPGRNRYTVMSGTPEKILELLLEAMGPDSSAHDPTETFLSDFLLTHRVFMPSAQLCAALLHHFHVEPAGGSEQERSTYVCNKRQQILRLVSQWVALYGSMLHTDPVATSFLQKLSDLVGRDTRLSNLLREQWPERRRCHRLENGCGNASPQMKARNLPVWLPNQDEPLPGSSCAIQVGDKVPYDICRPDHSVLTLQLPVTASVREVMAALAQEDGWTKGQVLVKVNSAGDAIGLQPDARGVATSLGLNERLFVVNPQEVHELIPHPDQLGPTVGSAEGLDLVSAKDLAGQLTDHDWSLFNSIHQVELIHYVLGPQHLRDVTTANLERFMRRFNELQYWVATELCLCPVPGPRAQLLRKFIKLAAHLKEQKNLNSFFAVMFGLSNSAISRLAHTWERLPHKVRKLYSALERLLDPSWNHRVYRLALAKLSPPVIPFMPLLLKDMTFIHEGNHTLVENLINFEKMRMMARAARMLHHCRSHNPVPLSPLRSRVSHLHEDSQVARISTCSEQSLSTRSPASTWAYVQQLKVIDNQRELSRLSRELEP", "experiment": "Validation qHTS for antagonist of cAMP-regulated guanine nucleotide exchange factor 3 (EPAC1); further: nearly all actives have a fitted effect of over 75% in size", "settings": "EPAC1 Rap1B-BODIPY-GDP exchange, fluorescence; series mostly up to 150 µM", "method_in_brief": "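Nucleotide exchange followed as fluorescence loss when BODIPY-GDP leaves Rap1B (480 nm excitation, 540 nm emission), read at 5 min intervals over 30 min. Reaction: 100 nM EPAC1, 250 nM RAP1B-BODIPY-GDP, 50 uM GDP; ATA and DMSO define normalization.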", "values": [{"smiles": "COc1c(O)cc2c(=O)oc3c(OC)c(O)cc4c(=O)oc1c2c34", "Potency": "inactive"}, {"smiles": "C[C@@H]1CCC(=O)N(CC[C@H](Sc2ccc(Br)cc2)c2ccccc2)CC1", "Potency": "inconclusive: 79.4 µM [inhibitor, partial curve, poor fit]"}, {"smiles": "O=C1[C@H]2[C@H](C=CC[C@H]2C(=O)N2CCN(c3ccccc3)CC2)CCN1Cc1ccc(Cl)c(Cl)c1", "Potency": "inconclusive: 28.2 µM [inhibitor, single point]"}, {"smiles": "COc1ccc(CNc2ccnc(-c3ccccc3Cl)n2)c(OC)c1", "Potency": "inconclusive: 126 µM [inhibitor, partial curve, poor fit]"}, {"smiles": "CN(C)c1ccc(-c2cc(Nc3ccc(F)cc3)ncn2)cc1", "Potency": "inconclusive: 112 µM [inhibitor, single point]"}, {"smiles": "COc1ccc(CN2CCOc3c(cc(-c4ncc(C(F)(F)F)cc4Cl)cc3OCC3CCCO3)C2)c(O)c1", "note": "(stereo unspecified)", "Potency": "inconclusive: 31.6 µM [inhibitor, full curve]"}, {"smiles": "CCOC(=O)/C=C1\\CN(Cc2ccc(OC)cc2)S(=O)(=O)c2ccc(C(F)(F)F)cc21", "Potency": "inconclusive: 112 µM [inhibitor, single point]"}, {"smiles": "CCCCCCCCN1[C@@H](CC(C)=O)c2cc(C(F)(F)F)ccc2S1(=O)=O", "Potency": "inconclusive: 25.1 µM [inhibitor, full curve]"}, {"smiles": "CO[C@H]1C[C@@H]2CC[C@@H](C)[C@@](O)(O2)C(=O)C(=O)N2CCCC[C@H]2C(=O)O[C@H]([C@H](C)C[C@@H]2CC[C@@H](OCCO)[C@H](OC)C2)CC(=O)[C@H](C)/C=C(\\C)[C@@H](O)[C@@H](OC)C(=O)[C@H](C)C[C@H](C)/C=C/C=C/C=C/1C", "Potency": "inconclusive: 112 µM [inhibitor, partial curve, poor fit]"}, {"smiles": "CO[C@H]1C=CO[C@@]2(C)Oc3c(C)c(O)c4c(O)c(c(/C=N/N5CCN(C6CCCC6)CC5)c(O)c4c3C2=O)NC(=O)/C(C)=C\\C=C[C@H](C)[C@H](O)[C@@H](C)[C@@H](O)[C@@H](C)[C@H](OC(C)=O)[C@@H]1C", "Potency": "inconclusive: 126 µM [inhibitor, partial curve, poor fit]"}, {"smiles": "O=C(c1n[nH]c2c1CCCC2)N1CCOc2ccc(C(O)C3CCCCC3)cc2C1", "note": "(stereo unspecified)", "Potency": "inactive"}, {"smiles": "O=c1cc(-c2ccc(O)c(O)c2)oc2cc(OC3OC(CO)C(O)C(O)C3O)cc(O)c12", "note": "(stereo unspecified)", "Potency": "active: 39.8 µM"}, {"smiles": "CCCCCCCCCCCCCCCC[n+]1ccc(C)cc1", "Potency": "inconclusive: 14.1 µM [inhibitor, partial curve, poor fit]"}, {"smiles": "COc1cccc(Cn2c(=O)c(-c3ccc(F)c(F)c3)nc3cncnc32)c1", "Potency": "inactive"}, {"smiles": "N[C@H](C(=O)O)[C@@H](O)c1ccc(O)c(O)c1", "Potency": "inconclusive: 44.7 µM [inhibitor, partial curve]"}, {"smiles": "Cc1cnc(-n2ncc(C(=O)NCC3COCCO3)c2C2CC2)nc1-c1cccs1", "note": "(stereo unspecified)", "Potency": "inactive"}, {"smiles": "C[C@@H]1[C@H](c2ccccc2)OCCS(=O)(=O)N1Cc1cccc(C(F)(F)F)c1", "Potency": "inconclusive: 20 µM [inhibitor, full curve]"}, {"smiles": "O=C(c1cc(C(F)(F)F)cc(C(F)(F)F)c1)N1CCC[C@@]2(CCN(c3ccccn3)C2)C1", "Potency": "inconclusive: 50.1 µM [inhibitor, full curve]"}, {"smiles": "CC(=O)N[C@@H](Cc1c[nH]c2ccccc12)C(=O)OCc1cc(C(F)(F)F)cc(C(F)(F)F)c1", "Potency": "inconclusive: 15.8 µM [inhibitor, full curve]"}, {"smiles": "COC1/C=C/OC2(C)Oc3c(C)c(O)c4c(O)c(c(/C=N/N5CCN(C)CC5)c(O)c4c3C2=O)NC(=O)/C(C)=C/C=C/C(C)C(O)C(C)C(O)C(C)C(OC(C)=O)C1C", "note": "(stereo unspecified)", "Potency": "inconclusive: 22.4 µM [inhibitor, full curve]"}, {"smiles": "N#C/C(=C\\c1c[nH]c2ccccc12)C(=O)c1ccc(O)c(O)c1", "Potency": "inactive"}, {"smiles": "CC1=NN(c2ccccc2)C(=O)C1", "Potency": "inconclusive: 89.1 µM [inhibitor, partial curve, poor fit]"}, {"smiles": "COc1ccc(CNc2nc(-c3cccc(NS(C)(=O)=O)c3)nc3ccccc23)c(OC)c1", "Potency": "inconclusive: 112 µM [inhibitor, single point]"}, {"smiles": "Nc1ncnc2c1nc(Cl)n2C1OC(CO)C(O)C1O", "note": "(stereo unspecified)", "Potency": "inactive"}, {"smiles": "CCCN1CCC(=O)N([C@H](CN=[N+]=[N-])Cc2ccccc2)CC1", "Potency": "inconclusive: 35.5 µM [inhibitor, single point]"}, {"smiles": "CCCCCCC/C=C\\CCCCCCCCC(=O)O", "Potency": "inconclusive: 39.8 µM [inhibitor, single point]"}, {"smiles": "Cc1ccc(CN2[C@@H]3c4ccccc4C[C@@H]3OCCS2(=O)=O)cc1", "Potency": "inconclusive: 63.1 µM [inhibitor, partial curve]"}, {"smiles": "Cc1cccc(C(=O)NCc2nc(-c3cccc(NC(=O)c4ccoc4C)c3)oc2C)n1", "Potency": "inconclusive: 50.1 µM [inhibitor, single point]"}, {"smiles": "C=C1C2CC[C@@]3(C)C(c4ccoc4)OC(=O)C[C@@]13OC1CC(OC(C)=O)C(C)(C)C(CC(=O)OC)[C@@]12C", "note": "(stereo partly specified)", "Potency": "inconclusive: 3.98 µM [inhibitor, full curve, poor fit]"}, {"smiles": "COc1ccccc1C1CN(Cc2cccc(O)c2)Cc2ccccc2O1", "note": "(stereo unspecified)", "Potency": "inconclusive: 14.1 µM [inhibitor, full curve]"}, {"smiles": "CCC(=O)OCC(=O)C1(OC(=O)CC)C(C)CC2C3C(Cl)CC4=CC(=O)C=C[C@@]4(C)C3C(O)C[C@@]21C", "note": "(stereo partly specified)", "Potency": "inconclusive: 100 µM [inhibitor, single point]"}, {"smiles": "O=C(c1cnccn1)N1CCC2(CCCN(Cc3ccncc3)C2)CC1", "Potency": "inconclusive: 112 µM [inhibitor, partial curve, poor fit]"}, {"smiles": "Cc1ccc2c(/C=C/c3ccc(N(C)C)cc3)ccnc2c1C", "Potency": "inactive"}, {"smiles": "CC(=O)[C@H](CC(C)C)NC(=O)[C@@H](CC(C)C)NC(=O)[C@H](CC(C)C)NC(=O)OCc1ccccc1", "Potency": "inactive"}, {"smiles": "CCC[N+](C)(C)c1ccc(/C=C/c2ccncc2)cc1", "Potency": "inconclusive: 50.1 µM [inhibitor, partial curve]"}, {"smiles": "C[C@](N)(Cc1ccc(O)c(O)c1)C(=O)O", "Potency": "inconclusive: 50.1 µM [inhibitor, partial curve, poor fit]"}, {"smiles": "CC(C)(C)c1ccc(S(=O)(=O)/C=C\\C#N)cc1", "Potency": "inconclusive: 17.8 µM [inhibitor, full curve]"}, {"smiles": "O=c1c(-c2cc(F)cc(F)c2)nc2cnc(N3CCNCC3)nc2n1Cc1cccs1", "Potency": "inconclusive: 112 µM [inhibitor, single point]"}, {"smiles": "O=C(Nc1ccc(Cl)cc1)Nc1ccc(Cl)c(C(F)(F)F)c1", "Potency": "inconclusive: 10 µM [inhibitor, full curve, poor fit]"}, {"smiles": "O=C1c2ccc(O)c(O)c2C(=O)c2c(O)ccc(O)c21", "Potency": "inconclusive: 100 µM [inhibitor, partial curve, poor fit]"}, {"smiles": "COc1cccc(C(=O)N(Cc2cc3ccc(C)cc3nc2N(C)C)C2CC2)c1OC", "Potency": "inconclusive: 28.2 µM [inhibitor, partial curve, poor fit]"}, {"smiles": "CNC[C@H](O)c1ccc(O)c(O)c1", "Potency": "inconclusive: 100 µM [inhibitor, single point]"}, {"smiles": "NC1=NC2C(N=C(Br)N2[C@@H]2O[C@H]3COP(=O)(O)O[C@@H]3[C@@H]2O)C(=O)N1", "note": "(stereo partly specified)", "Potency": "inactive"}, {"smiles": "Nc1nc2ccc(OC(F)(F)F)cc2s1", "Potency": "inconclusive: 28.2 µM [inhibitor, single point]"}, {"smiles": "COc1ccc2c(c1)c(CC(=O)O)c(C)n2C(=O)c1ccc(Cl)cc1", "Potency": "inconclusive: 100 µM [inhibitor, partial curve]"}, {"smiles": "O=C1CCN(Cc2ccc(O)cc2)CCN1[C@H](CO)c1ccccc1", "Potency": "inconclusive: 112 µM [inhibitor, single point]"}, {"smiles": "CCCCCCCCCCCCCCCC(=O)O[C@@H]1CC(C)=C(/C=C/C(C)=C/C=C/C(C)=C/C=C/C=C(C)/C=C/C=C(C)/C=C/C2=C(C)C[C@@H](OC(=O)CCCCCCCCCCCCCCC)CC2(C)C)C(C)(C)C1", "Potency": "inconclusive: 100 µM [inhibitor, partial curve]"}, {"smiles": "CC(C)c1c(O)ccc2c1CCC1[C@@](C)(C=O)CCC[C@@]21C", "note": "(stereo partly specified)", "Potency": "inconclusive: 31.6 µM [inhibitor, full curve, poor fit]"}, {"smiles": "Oc1c(Cl)cc(Cl)c(Cl)c1Cc1c(O)c(Cl)cc(Cl)c1Cl", "Potency": "active: 56.2 µM and inactive"}, {"smiles": "CCCc1c(-c2ccc(O)cc2)nn(-c2ccc(O)cc2)c1-c1ccc(O)cc1", "Potency": "inconclusive: 35.5 µM [inhibitor, partial curve]"}, {"smiles": "CCCCCCCCCCCCCCC(C(=O)O)C(O)(CC(=O)OC)C(=O)O", "note": "(stereo unspecified)", "Potency": "inconclusive: 126 µM [inhibitor, single point]"}, {"smiles": "CC(C)(C)OC(=O)NS(=O)(=O)NOCc1ccccc1", "Potency": "inactive"}, {"smiles": "COC(=O)[C@@H]1C2CC3c4[nH]c5cc(OC)ccc5c4CCN3CC2C[C@H](OC(=O)c2cc(OC)c(OC)c(OC)c2)C1OC", "note": "(stereo partly specified)", "Potency": "inconclusive: 56.2 µM [inhibitor, partial curve, poor fit]"}, {"smiles": "CCOc1cc(OCC)c(C(=O)CCC(=O)O)cc1OCC", "Potency": "inactive"}, {"smiles": "COc1cc(C)c2c(c1C=O)Oc1c(c(C)c(O)c3c1C(O)OC3=O)OC2=O", "note": "(stereo unspecified)", "Potency": "inconclusive: 126 µM [inhibitor, single point]"}, {"smiles": "O=C(Nc1cccc(C(=O)Nc2ccc(S(=O)(=O)O)c3cc(S(=O)(=O)O)cc(S(=O)(=O)O)c23)c1)Nc1cccc(C(=O)Nc2ccc(S(=O)(=O)O)c3cc(S(=O)(=O)O)cc(S(=O)(=O)O)c23)c1", "Potency": "inconclusive: 3.98 µM [inhibitor, full curve, poor fit] and inconclusive: 14.1 µM [inhibitor, partial curve, poor fit]"}]}]}
